# “And” between values parts separate entries of the source, which are not always exact repeats. Equal entries are not always repeated. The whole screen tested about 290,000 compounds, of which about 2,100 (0.72%) were called active. Inconclusive means that the source gave no clear call. Such entries were picked first, then a sample of the others. The call rests on the fitted dose curve; in most records, active means well fitted inhibition curve with a large enough effect; inconclusive means small, poorly fitted or top-dose-only effect, or effect the other way; inactive means flat fitted curve, though single readings scatter. A potency beside an inconclusive call is a rough fit, not a confirmed value. Some compounds were tested as several samples or in several runs, with calls that do not always agree. Residues, ends and D or L forms follow the SMILES beside them.
# Biological target: Fructose-bisphosphate aldolase (Giardia intestinalis (strain ATCC 50803 / WB clone C6)) (UniProt A8B2U2)
# Assay: qHTS Assay for Inhibitors of Fructose-1,6-bisphosphate Aldolase from Giardia Lamblia; further: nearly all actives have a fitted effect of over 55% in size
# Conditions: purified Giardia FBPA; activity, negative = inhibition: at 59.6 µM (top of the series) unless noted
# In short: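 40 nM FBPA preincubated 10 min at RT with compound (up to 57.5 uM final), then substrate plus GAPDH/TPI/NAD/arsenate coupling and diaphorase/resazurin added. Fluorescence read after 20 min at RT, 525/598 nm.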
# On the % scale 0 is the no-effect control and ±100 the full control effect; potency means the concentration at half of the fitted maximal effect; tags describe the fitted curve by direction and shape.
# Sequence of UniProt A8B2U2 (A8B2U2 whole entry, looked up): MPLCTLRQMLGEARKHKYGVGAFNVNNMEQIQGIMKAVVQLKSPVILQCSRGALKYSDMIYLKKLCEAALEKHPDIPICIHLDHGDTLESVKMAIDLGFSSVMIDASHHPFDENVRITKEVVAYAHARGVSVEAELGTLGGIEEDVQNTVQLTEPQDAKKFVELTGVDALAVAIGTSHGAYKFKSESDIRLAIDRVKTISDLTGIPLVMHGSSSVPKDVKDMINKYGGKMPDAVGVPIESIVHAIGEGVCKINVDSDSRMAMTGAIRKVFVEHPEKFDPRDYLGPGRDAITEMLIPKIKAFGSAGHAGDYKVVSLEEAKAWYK
Compound,Potency,"activity, negative = inhibition"
CN(Cc1ccccc1)Cc1ccccc1F,"inconclusive: 15.8 µM [inhibitor, partial curve]",–
COc1cc(C(C#N)N2CCOCC2)ccc1O (stereo not drawn),"inconclusive: 6.29 µM [inhibitor, partial curve]",–
C/C(N)=C(/C#N)C(=O)COC(=O)c1cc2c(s1)CCCC2,inactive,–
CCOC(=O)c1cn[nH]c1NC(=S)Nc1ccc(OC)cc1,"inconclusive: 15.8 µM [inhibitor, partial curve]",–
CC(=O)c1cccc(OCC(O)CNCC2CCCCC2)c1 (stereo not drawn),"inconclusive: 25.1 µM [inhibitor, partial curve]",–
CCCCn1c(N)c(C(=O)NCc2cccs2)c2nc3ccccc3nc21,"inconclusive: 12.6 µM [inhibitor, partial curve]",–
Cc1ccc(C)[n+](CC(=O)c2ccc(-c3ccccc3)cc2)c1,inactive,–
COc1ccc2c(c1)[nH]c1c(C)nccc12,inactive,–
COC(=O)CC(NC(=S)N1CC2C[C@@H](C1)Cn1c2cccc1=O)C(=O)OC (stereo partly drawn),inactive,–
O=C(/C=C/c1ccccc1)N/C(=C/c1ccccc1)C(=O)Nc1cccc(C(=O)O)c1,"inconclusive: 15.8 µM [activator, single point]",–
O=C1COc2ccc(C(=O)CSc3ccccc3C(=O)O)cc2N1,inactive,–
Cn1c(=O)n(C)c2cc([N+](=O)[O-])c(N3CCN(C(=O)c4cccc(F)c4)CC3)cc21,inactive,–
COc1cc(CNCc2cccc3ccccc23)cc(OC)c1,"inconclusive: 28.2 µM [inhibitor, partial curve]",–
Fc1cccc(Cl)c1CSc1nnc(-c2ccncc2)o1,inactive,–
CCN1CCn2c3c(c4cccc(C)c42)CCCC31 (stereo not drawn),"inconclusive: 20 µM [inhibitor, partial curve]",–
O=C(CCC1CCCNC1)c1ccccc1 (stereo not drawn),"inconclusive: 17.8 µM [inhibitor, partial curve]",–
Cc1ccn2c(-c3n[nH]c(=S)n3C)c(C)nc2c1,"inconclusive: 17.7 µM [inhibitor, partial curve]",–
O=C(c1cc2c(s1)-c1ccccc1OC2)N1CCN(c2ccccc2)CC1,inactive,–
CC1(C)CC(=O)C(C=Nc2ccccc2C(=O)O)=C(O)C1,inactive,–
CCCc1cc(=O)oc2cc(OCc3ccc(C(=O)O)cc3)ccc12,inactive,–
COc1ccc(S(=O)(=O)N2CCN(Cc3cc(OC)c(OC)c(OC)c3)CC2)cc1,"inconclusive: 31.6 µM [inhibitor, partial curve]",–
COc1ccc(N(CC(=O)Nc2c(C)n(C)n(-c3ccccc3)c2=O)S(=O)(=O)c2ccccc2)cc1OC,inactive,–
Cc1c(/C=N/Nc2ccc(C(=O)O)cc2)c2ccccc2n1C,inactive,–
CC(C)[C@H](NC(=O)[C@H](CCCCN)NC(=O)[C@@H](NC(=O)[C@@H]1CCCN1C(=O)[C@H](CCCN=C(N)N)NC(=O)[C@H](CCCN=C(N)N)NC(=O)[C@H](CCCCN)NC(=O)[C@H](CCCCN)NC(=O)CNC(=O)[C@@H](NC(=O)[C@@H]1CCCN1C(=O)[C@@H](N)CCCCN)C(C)C)C(C)C)C(=O)N[C@@H](Cc1ccc(O)cc1)C(=O)N1CCC[C@H]1C(=O)O (H-KPVGKKRRPVKVYP-OH),"inconclusive: 6.29 µM [inhibitor, full curve, poor fit]",–
CN(Cc1cn(C)nc1-c1cccc(Cl)c1)Cc1nccn1C,inactive,–

Compound,Potency,"activity, negative = inhibition"
O=C1/C(=C/c2ccco2)Oc2c1ccc(O)c2CN1CCCCC1,"inconclusive: 11.2 µM [inhibitor, partial curve]",–
COc1cc(C(=O)NC(=S)Nc2ccc(NC(=O)c3ccco3)cc2)cc(OC)c1OC,"inconclusive: 5 µM [inhibitor, full curve]",–
CC(=O)c1ccc(N2CCN(CC(O)COC(c3ccccc3)c3ccccc3C)CC2)cc1 (stereo not drawn),"inconclusive: 31.6 µM [inhibitor, partial curve]",–
O=C1C2C3C=CC(CC3)C2C(=O)N1/N=C/c1ccc(O)c(O)c1 (stereo not drawn),"inconclusive: 5 µM [inhibitor, partial curve]",–
COc1cc(-c2nc3ccc(N4CCN(C)CC4)cc3[nH]2)cc(OC)c1OC,"inconclusive: 19.9 µM [inhibitor, partial curve]",–
Cc1ccc(S(=O)(=O)N(C)c2cc(S(=O)(=O)N3CCOCC3)c(C)cc2C)cc1,inactive,–
O=C(NC(=O)c1cnccc1C(F)(F)F)Nc1ccccc1,inactive,–
CCOC(=O)Nc1ccc2c(c1)N(C(=O)CN1CCN(CCO)CC1)c1ccccc1CC2,"inconclusive: 35.5 µM [inhibitor, single point]",–
COc1cc(O)c(C(CCN2CCCCC2)c2cc(OC)c(OC)c(OC)c2)c(OC)c1 (stereo not drawn),"inconclusive: 15.8 µM [inhibitor, partial curve]",–
O=C(O)c1ccc(NCCc2ccc(Cl)cc2)c([N+](=O)[O-])c1,inactive,–
C=C(C)CNC(=S)N/N=C(\C)c1cccc(NC(C)=O)c1,"inconclusive: 15.8 µM [inhibitor, single point]",–
COCCCNC(=O)c1c(NC(=O)c2ccco2)n(Cc2ccccc2)c2nc3ccccc3nc12,"inconclusive: 17.7 µM [inhibitor, partial curve]",–
Cn1cc(CC(=O)NCCCN2CCCC2)c2ccccc21,"inconclusive: 19.9 µM [inhibitor, single point]",–
CNc1ccc(C(=O)Oc2cc(O/N=[N+](\[O-])N(C)C)c([N+](=O)[O-])cc2[N+](=O)[O-])cc1,"inconclusive: 15.8 µM [inhibitor, single point]",–
CSc1ccccc1NC(=O)C1CC(c2ccccc2O)=NO1 (stereo not drawn),inactive,–
CC(C)N1C(=O)CC2(CC[N+](C)(CCOC(=O)C(c3ccccc3)c3ccccc3)CC2)C1=O (stereo not drawn),"inconclusive: 22.3 µM [inhibitor, single point]",–
O=S(=O)(Nc1cccc2cccnc12)c1ccccc1O,active: 19.9 µM,–
CC(CN1CCC(O)CC1)c1ccccc1 (stereo not drawn),"inconclusive: 15.8 µM [inhibitor, partial curve]",–
O=c1c(-c2ccccc2)[n+]([O-])c2ccccc2n1O,"inconclusive: 19.9 µM [inhibitor, partial curve]",–
Cc1nc2ccc([N+](=O)[O-])cc2c(=O)n1Cc1ccc(Br)cc1,inactive,–
CCc1ccc(NC(=S)Nc2cccc3cnccc23)cc1,"inconclusive: 2.81 µM [inhibitor, full curve]",–
CC(/C=N/NC(=O)c1cccnc1)=C\c1ccccc1,inactive,–
CCOc1ccc(OCc2ccc(C(=O)NC(C)(C)C)o2)cc1,inactive,–
COc1cccc(C2CNC3(CCCC(C)C3)c3[nH]c4ccccc4c32)c1OC (stereo not drawn),inactive,–
O=C(Nc1ccc(Cl)cc1)Nc1nnc(CSCc2ccccc2)s1,inactive,–

Compound,Potency,"activity, negative = inhibition"
COc1cc(-c2n[nH]c(=S)n2-c2ccc(C)cc2)cc(OC)c1OC,inactive,–
COC(=O)C1=C(C)NC(C)=C(C(=O)OC)C1c1ccccc1[N+](=O)[O-],active: 17.7 µM and active: 7.92 µM,–
CCC(=O)N(CC)c1nc(-c2ccc(OC)cc2)cs1,inactive,–
Cc1ccc(N/N=C2\CC(=O)c3ccccc32)cc1Cl,"inconclusive: 7.06 µM [inhibitor, partial curve]",–
Cc1cc(N2CCC(C(=O)N3CCN(c4cccc(C)c4C)CC3)CC2)n2ncnc2n1,"inconclusive: 6.31 µM [activator, single point]",–
Oc1ccc2ccccc2c1CN1CCCC1,inactive,–
Cc1cccc(CN2CCc3c([nH]c4ccccc34)C2)c1,"inconclusive: 15.8 µM [inhibitor, partial curve]",–
O=C(Nc1nnc(-c2ccco2)o1)c1cccc(N2C(=O)CCC2=O)c1,"inconclusive: 25.1 µM [inhibitor, partial curve]",–
Cc1ccc(C)c2nc(N3CCCC3)c(C#N)cc12,–,inconclusive: 42.3% [activator]
CCN(C(=O)Cn1c(=O)oc2cc(S(=O)(=O)N3CCOCC3)ccc21)c1ccccc1,inactive,–
COCCn1nnnc1C(c1cc2cc(OC)c(OC)cc2[nH]c1=O)N1CCN(c2ccc(O)cc2)CC1 (stereo not drawn),"inconclusive: 12.6 µM [inhibitor, partial curve]",–
Cc1ccc(C2CC(=O)C=C(NCC(C)C)C2)cc1 (stereo not drawn),inactive,–
O=C(N/N=C\c1cccc(Br)c1)c1ccccc1-n1cccc1,"inconclusive: 15.8 µM [inhibitor, single point]",–
O=C1C=Cc2ccccc2/C1=C/c1[nH]c(=O)[nH]c1O,"inconclusive: 19.9 µM [inhibitor, single point]",–
CN(C)CCCN1c2ccccc2CCc2ccc(Cl)cc21,inactive,–
COc1ccc(-n2c(C)cc(C(=O)CSc3nnc(-c4ccoc4C)n3C)c2C)cc1,"inconclusive: 15.8 µM [inhibitor, single point]",–
CCOC(=O)CCSCC(=O)Nc1nnc(C)s1,"inconclusive: 15.8 µM [inhibitor, single point]",–
O=C(Nc1ccc(Cl)c(S(=O)(=O)N2CCOCC2)c1)c1ccc2c(c1)OCCO2,inactive,–
O=C(C1CCN(Cc2cccs2)CC1)N1CCN(Cc2ccc3c(c2)OCO3)CC1,"inconclusive: 9.98 µM [inhibitor, partial curve]",–
O=C(O)CSc1cc(NS(=O)(=O)c2ccc(Br)cc2)c2ccccc2c1O,active: 7.08 µM,–
COC(=O)c1ccc(NC(=O)CNCc2ccncc2)cc1,"inconclusive: 17.7 µM [inhibitor, single point]",–
COC(=O)CCC(=O)OC1(C)C(=O)C=C2C=C(c3ccc(C#N)cc3)OC=C2C1=O (stereo not drawn),inactive,–
COCCNC(=O)C1CCC(Cn2c(=S)[nH]c3ccccc3c2=O)CC1 (stereo not drawn),inactive,–

# — PubChem BioAssay AID2451 (National Center for Advancing Translational Sciences (NCATS), 2010)
